From ChEMBL document CHEMBL4888484, “Replenishing the malaria drug discovery pipeline: Screening and hit evaluation of the MMV Hit Generation Library 1 (HGL1) against asexual blood stage Plasmodium falciparum ,using a nano luciferase reporter read-out” (2022) come the findings set out here.

In all, about 150,000 compounds went through this assay and about 540 (0.36%) showed an effect of 50% or more. The list shows a part of the results.

This assay concerns Plasmodium falciparum. The assay can be described thus: Primary screen in NF54 nanoGlo assay, in single point, at 2uM, 72h; a lower Z score goes with more inhibition. It counts as functional, Erythrocyte. The following applies: timepoint 72 hour.
What is called % Inhibition is the drop in the measured response relative to a control, in per cent. For `Cc1cc(C(=O)Nc2ccc(-n3nnn(CC(=O)N4CCOCC4)c3=O)cc2)no1`, the “% Inhibition” value was -6% and the Z score is reported as 1.16.
`C[C@H]1CCc2ccccc2N1Cc1nc(C2CC2)no1`: the “% Inhibition” value was -15% and the Z score came out at 1.54.
`Cc1cccc(NC[C@H]2CCCN2Cc2nnc(-c3ccccc3)o2)n1`: the “% Inhibition” value is recorded as -13% and the Z score turned out to be 1.95.
The like results for `Cc1nscc1C(=O)N(c1ccc(C#N)cc1)C1CC1` were, in that order, -10% and 1.01.
With `COc1ccc([C@@]2(C)NC(=O)N(CC(=O)Nc3cc(C(F)(F)F)ccc3N3CCOCC3)C2=O)cc1OC`, the “% Inhibition” value was determined as 0% and the Z score amounted to 0.03.
On to `COc1cccc2sc(OC3CN(C(=O)c4ccc5c(c4)OCO5)C3)nc12`, for which the “% Inhibition” value is -9% and the Z score is 0.97.
Regarding `CC(C)CN(CC(=O)N1CC(=O)N(c2ccc(F)cc2)C1)C(=O)c1ccc(Cl)c(Cl)c1`, the “% Inhibition” value amounted to 4% and the Z score is given as -0.37.
For `O=C(NC1CCC1)c1cccc(S(=O)(=O)N2CCCN3CCC[C@H]3C2)c1`, the “% Inhibition” value was 1% and the Z score is -0.19.
Turning to `CC(C)(C)n1ncc2c1NC(=O)C[C@]21C(=O)Nc2cc(F)ccc21`, the “% Inhibition” value is given as 4% and the Z score was -0.56.
As for `CCOC(=O)Cc1sc(N)nc1C`, the “% Inhibition” value was -13% and the Z score is 1.69.
The matching figures for `O=C(COc1ccccc1)N1CCOC12CCCCC2`: 1% and -0.08.
The matching figures for `O=C(NC[C@H]1CC(=O)N(C2CC2)C1)c1cc(C2CC2)[nH]c(=O)c1`: 2% and -0.27.
As for `c1ccc(CNC2=Nc3ccccc3CCC2)cc1`, the “% Inhibition” value was determined as 2% and the Z score is -0.19.
The matching figures for `c1ccc(C[C@H](NCCn2cncn2)C2CCCCC2)cc1`: -6% and 0.6.
On to `CC(C)c1ccccc1OC[C@@H](O)CNCCCn1ccnc1`, for which the “% Inhibition” value worked out at 19% and the Z score is -2.6.
With `O=C(N[C@H]1COc2ccccc2C1=O)C1CCC(F)(F)CC1`, the “% Inhibition” value was -19% and the Z score was 1.78.
`CC(C)c1nc(C#N)c(C#N)nc1-c1ccc2c(c1)OCCOCCOCCOCCO2`: the “% Inhibition” value is 0% and the Z score is 0.02.
As for `O=C(c1ccc(Cl)cc1)N1CCCOC1`, the “% Inhibition” value is listed as -6% and the Z score was 0.66.
The matching figures for `O=C(Cn1cccc1-c1nc(-c2cccc(Cl)c2)no1)N1CCN(c2ccccc2F)CC1`: 11% and -1.31.
The like results for `Clc1cccnc1OC1CCOCC1` were, in that order, -14% and 1.82.
Take `Cc1ccc(S(=O)(=O)n2nc(-c3cn(C)nc3C)c(Cl)c2-c2cn(C)nc2C)cc1`: the “% Inhibition” value worked out at 31% and the Z score is reported as -3.52.
Take `O=C1NCCN(C(=O)C2Cc3ccccc3C2)[C@H]1CCO`: the “% Inhibition” value is listed as -7% and the Z score is listed as 0.79.
`CN(C)[C@H]1CCCN(Cc2cccc3cc[nH]c23)C1`: the “% Inhibition” value is -8% and the Z score was determined as 1.6.
With `CC(C)n1cc(NC(=O)NCCc2ccc(S(N)(=O)=O)cc2)nn1`, the “% Inhibition” value is reported as -12% and the Z score stood at 2.2.
For `CCOC(=O)N1CCC2(O)CCCCC2[C@@H]1c1ccc(OC)cc1` (stereo partly drawn), the “% Inhibition” value is -10% and the Z score came to 1.27.
The like results for `CN(Cc1ccns1)C(=O)N[C@H]1CCCC1(F)F` were, in that order, -7% and 1.42.
As to `CCN(CC)CCCNC(=O)c1cc2occc2c(Nc2ccccc2)n1`, the “% Inhibition” value is reported as -5% and the Z score was determined as 0.55.
The like results for `O=c1[nH]n(C2CCOCC2)c2c1[C@@H](c1ccc(F)c(Cl)c1)CC(O)=N2` were, in that order, -7% and 0.97.
With `COc1ccc(CC(=O)NCCc2csc(C)n2)cc1`, the “% Inhibition” value is recorded as -11% and the Z score was 2.02.
Turning to `CCc1noc([C@H](C)N2CCc3ncnc(OC)c3C2)n1`, the “% Inhibition” value is listed as -6% and the Z score is on record as 1.19.
The matching figures for `CN=C(NCc1cc2ccccc2o1)NC1CC1`: 9% and -1.16.
Regarding `CCn1cc(CN(C)Cc2cnc3c(-c4ccccc4)cnn3c2)c(C)n1`, the “% Inhibition” value is listed as -4% and the Z score came to 0.72.
On to `Cc1[nH]c(CN2C[C@@H]3CCC[C@H](C2)C(=O)N3)cc1C#N`, for which the “% Inhibition” value is -15% and the Z score is recorded as 2.62.
As to `COc1cc2c3c(c1O)-c1c(cccc1OC)C[C@@H]3[N+](C)(C)CC2`, the “% Inhibition” value is recorded as -5% and the Z score is reported as 0.47.
In the case of `COc1cccc(CN2CCN(C(=O)N(C)C)[C@H]3CS(=O)(=O)C[C@H]32)c1`, the “% Inhibition” value was -25% and the Z score is on record as 2.35.
The matching figures for `CN(Cc1ncnn1C)c1ccc(C(=O)NC2CCCC2)nn1`: -13% and 1.28.
For `COc1cccc(-c2cn(CC(=O)Nc3ccccc3C)nc2N2CCOCC2)c1`, the “% Inhibition” value was -9% and the Z score is listed as 1.01.
For `C[C@H](O)CNS(=O)(=O)Cc1ccccc1`, the “% Inhibition” value was -10% and the Z score was determined as 0.98.
Consider `CN(C)C1CC(NC(=O)c2cccn2C)C1(C)C` (stereo not drawn), for which the “% Inhibition” value is recorded as -21% and the Z score worked out at 4.05.
Regarding `Cc1nc(-c2cccc(Cl)c2Cl)sc1-c1ccn[nH]1`, the “% Inhibition” value worked out at 30% and the Z score is -3.91.
`COc1ccccc1-c1nnc([C@H]2CCN(Cc3ncc[nH]3)C2)o1`: the “% Inhibition” value was 32% and the Z score was -3.57.
As for `CC[C@H](NS(=O)(=O)N1CCOCC1)c1cccs1`, the “% Inhibition” value is on record as -17% and the Z score was found to be 2.87.
For the molecule `COc1cc2c(c(OC)c1)N(C(=O)c1cc3ncccc3o1)CCC2`, the “% Inhibition” value is -4% and the Z score is recorded as 0.8.
Regarding `CCc1nn(-c2ccc(F)cc2)c(Oc2cccc(C)c2)c1CN(C[C@H]1CCCO1)C(=O)COC`, the “% Inhibition” value is reported as -14% and the Z score is 2.25.
`COCCn1ccc(NCc2ccoc2)n1`: the “% Inhibition” value was -9% and the Z score amounted to 1.63.
With `CCOc1cccc(CN2CCc3nc(N4CCOCC4)ncc3C2)c1`, the “% Inhibition” value is reported as -6% and the Z score is on record as 0.83.
For the molecule `COCCCN1CC(=O)N[C@@H]2CN(C(=O)C(C)C)CC[C@@H]2OCc2cccc(c2)Oc2cc(ccc2OC)C1`, the “% Inhibition” value is listed as -14% and the Z score is 2.62.
In the case of `Cc1occc1C(=O)N[C@H]1CCc2ccccc21`, the “% Inhibition” value worked out at 1% and the Z score was -0.09.
The matching figures for `O=C(COC1CCCC1)N1CCCN(C2CC2)CC1`: 1% and -0.22.
Turning to `Cn1ccc(NC(=O)NCCc2cn[nH]c2)cc1=O`, the “% Inhibition” value is given as -2% and the Z score stood at 0.2.
Turning to `COc1cccc(NS(=O)(=O)c2c(C)sc(C)c2-c2cc(C(F)(F)F)on2)c1`, the “% Inhibition” value is -5% and the Z score came to 0.82.
The like results for `O=C(Nc1ccc(S(=O)(=O)N2CCOCC2)cc1)C1=NN(c2ccccc2)C(=O)CC1` were, in that order, -6% and 1.11.
Consider `C[C@H](NC(=NC1CC1)NCc1cc2ccccc2o1)c1ccccc1`, for which the “% Inhibition” value is -10% and the Z score is reported as 0.99.
Turning to `N#Cc1cccc(-c2ccnc(N[C@H]3CO[C@H]4[C@@H]3OC[C@@H]4NC(=O)c3ccc4c(c3)OCO4)n2)c1`, the “% Inhibition” value is 31% and the Z score was -3.5.
The matching figures for `CCn1cc(Cl)c(C(=O)N(C)C[C@@]23CCC[C@H]2N(C)C(=O)CC3)n1`: -15% and 1.98.
The matching figures for `O=C(NC1c2ccccc2CC12CCOCC2)N[C@H]1C[C@H]2CC[C@@H]1O2` (stereo partly drawn): -11% and 2.14.
As for `COc1ccc(CCN2C(=O)[C@@H]3CCCN3C2=O)cc1OC`, the “% Inhibition” value was -8% and the Z score is 0.98.
As to `CC(=O)c1c(C)[nH]c(C(=O)N2CCO[C@H](c3ccccc3)C2)c1C`, the “% Inhibition” value is on record as 2% and the Z score is -0.26.
With `O=c1ccc(-n2cncn2)nn1CC1CCN(c2ncncc2F)CC1`, the “% Inhibition” value is -15% and the Z score was 2.16.
`O=C(Nc1cc(F)ccc1O)C1CC=CC1`: the “% Inhibition” value is reported as 2% and the Z score was -0.26.
Consider `COC[C@H](NC(=O)c1cc(C)cc(Br)c1)C(N)=O`, for which the “% Inhibition” value is -14% and the Z score stood at 1.71.
With `C[C@@H]1CN(C(=O)CN2Cc3cnc(-c4ccccc4)nc3C2)C[C@H](C)O1`, the “% Inhibition” value stood at 9% and the Z score is given as -1.22.
With `CCOC(=O)c1nc2ccccc2nc1N1CCCN(S(=O)(=O)c2ccccc2C(F)(F)F)CC1`, the “% Inhibition” value is on record as -13% and the Z score is listed as 1.43.
The like results for `CCC(=O)Nc1cccc(C2OC(=O)N(Cc3ccc(C)cc3)C2C(=O)N2CCOCC2)c1` (stereo not drawn) were, in that order, 0% and 0.02.
The matching figures for `CCc1ccccc1S(=O)(=O)N1CCC([C@H](O)c2ncc[nH]2)CC1`: -10% and 1.27.
The like results for `C[C@H](NC(=O)c1ccoc1)C(=O)N1CCCCCc2ccccc21` were, in that order, -13% and 1.26.
In the case of `CN1C(=O)C[C@](CC(=O)N(C)C(C2CC2)C2CC2)(c2ccccc2Cl)C1=O`, the “% Inhibition” value was -2% and the Z score came out at 0.31.
The matching figures for `COc1cc(OC)cc(C(C(=O)O)N2CC(c3ccc(F)cc3)CC2C)c1` (stereo not drawn): 0% and -0.03.
As to `Cc1ccc2nc(NC(=O)Cc3noc4ccccc34)sc2c1`, the “% Inhibition” value is on record as -9% and the Z score is reported as 1.17.
The like results for `Cc1ccc(F)c(N2CCC[C@H](NC(=O)c3ccc[nH]3)C2=O)c1` were, in that order, 9% and -1.78.
The matching figures for `O=C(c1cccs1)N(CCc1cccs1)C1CCOCC1`: -6% and 1.14.
Turning to `F[C@@H]1CN(Cc2ccc(C(F)(F)F)cc2)C[C@@H]1OCc1nc2ccccc2[nH]1`, the “% Inhibition” value was determined as 3% and the Z score is -0.41.
The like results for `CN(CC(O)C(F)(F)F)C1(CO)CCOC1` (stereo not drawn) were, in that order, -2% and 0.25.
For `CCCCc1ccc(CC(=O)NC2CCOC3(CCS(=O)(=O)C3)C2)cc1` (stereo not drawn), the “% Inhibition” value is listed as -13% and the Z score came to 1.65.
As to `CC(C)(C)OC(=O)Nc1cccc(N)n1`, the “% Inhibition” value was 34% and the Z score was -0.75.
For the molecule `Cc1cccc(C(=O)N[C@@H](C)C(=O)NCc2ncc[nH]2)c1`, the “% Inhibition” value is recorded as -8% and the Z score turned out to be 0.78.
As to `Cc1cc2[nH]c(=O)[nH]c2c(NC(=O)c2csc(CN(C)C)n2)c1C`, the “% Inhibition” value was -14% and the Z score came out at 2.47.
The matching figures for `O=C1Nc2c(Cl)cccc2C(=O)N2C[C@H](O)C[C@@H]12`: 20% and -2.57.
The like results for `CCC(=O)Nc1c(S(=O)(=O)c2ccccc2)c2nc3ccccc3nc2n1[C@@H](C)c1ccccc1` were, in that order, -14% and 1.29.
`O=C(Nc1cccc2[nH]ncc12)c1ccccc1[C@H]1CCNC1`: the “% Inhibition” value is given as -4% and the Z score was 0.78.
The like results for `Cc1ccc([C@H](CN2CCOCC2)NC(=O)C2CCN(S(=O)(=O)c3ccc(C)cc3C)CC2)cc1` were, in that order, -2% and 0.33.
With `Cc1ccnc(N[C@@H]2C=C[C@H](CO)C2)n1`, the “% Inhibition” value is -10% and the Z score was 0.99.
Take `CCN1CCn2c(nc3cc(C(=O)NCc4ccc(OC)cc4)ccc32)C1=O`: the “% Inhibition” value is reported as -1% and the Z score was 0.07.
`CCC(C)NC(=O)N1CCCC(CCO)C1` (stereo not drawn): the “% Inhibition” value is reported as -8% and the Z score came to 1.04.
